We go through 43 compounds from ChEMBL document CHEMBL4888484, “Replenishing the malaria drug discovery pipeline: Screening and hit evaluation of the MMV Hit Generation Library 1 (HGL1) against asexual blood stage Plasmodium falciparum ,using a nano luciferase reporter read-out” (2022).

Out of some 150,000 compounds screened, about 540 (0.36%) showed an effect of 50% or more. The list shows a part of the results.

One may read the % Inhibition as the relative decrease from the control value, in per cent.

The test system of the assay is Plasmodium falciparum. Kind of assay: Primary screen in NF54 nanoGlo assay, in single point, at 2uM, 72h; a lower Z score goes with more inhibition. It is filed as functional, Erythrocyte. The note with it: timepoint 72 hour.
Turning to `CC(C)(C)OC(=O)N1CC2CCCCN2CC1CN` (stereo unspecified), the “% Inhibition” value is -3% and the Z score came to 0.54.
The corresponding values for `Cc1cnccc1NCCNC1CCN(c2ccc3c(c2)CCC3)CC1` are 85% and -13.14.
For `CC(C)(C)NC(=O)N1CCC(CNC(=O)CCc2ccccc2Br)CC1`, in that order: -9% and 1.47.
The corresponding values for `O=C1NCCN(Cc2c(F)cccc2Br)[C@H]1Cc1nc2ccccc2o1` are 26% and -2.89.
Turning to `Nc1ccc(CCNS(=O)(=O)c2cnc3n2CCC3)cc1`, the “% Inhibition” value is -35% and the Z score is reported as 4.06.
For `O=C(NCC(=O)N1CCCC1)NCC1(c2ccc(Cl)cc2Cl)CCOCC1`, in that order: -2% and 0.26.
For `CC(NCc1noc2c1CCCC2)C1CC12CC2` (stereo unspecified), in that order: -10% and 1.27.
For `CCNC(=O)N1CCC(c2nnc(C(=O)Nc3ccccc3)s2)CC1`, in that order: 8% and -0.76.
In the case of `COc1ccc(CC(=O)N(Cc2ccco2)[C@H]2CCS(=O)(=O)C2)cc1OC`, the “% Inhibition” value was -7% and the Z score is 0.88.
For `COCCN1C[C@@H](Cc2cc(N(C)C)ncn2)CC1=O`, in that order: -17% and 1.69.
As for `CC(C)OCC1CCN(C(=O)c2ccnc(C(C)C)n2)CC1`, the “% Inhibition” value was -4% and the Z score is 0.39.
The corresponding values for `c1ccc(-c2cc(-c3nc([C@H]4CCOC4)no3)n[nH]2)cc1` are -14% and 1.42.
The corresponding values for `Cc1cc(O)cc(=O)n1CCCC(=O)N1CCC[C@H]1c1nc2ccccc2n1C(C)C` are -3% and 0.61.
For `CCc1nccn1CCC(=O)N[C@H]1CCOC[C@@H]1Oc1ccc(CO)cc1`, in that order: -9% and 0.83.
For `C[C@H](O)C(=O)N1CCC(c2nccn2CC2CCC2)CC1`, the “% Inhibition” value came out at 0% and the Z score is recorded as 0.06.
In the case of `c1ccc(-n2cc(Cn3nccc3N[C@H]3CCCOC3)cn2)cc1`, the “% Inhibition” value is -2% and the Z score was determined as 0.21.
For `N#CC1(NS(=O)(=O)c2c(Cl)cccc2Br)CC1`, the “% Inhibition” value is given as -16% and the Z score was 1.4.
The corresponding values for `Cc1cc(-c2nc3ccccc3n2C)c(=O)n(CCC(N)=O)n1` are -9% and 0.77.
For `O=C(Cn1c(-c2cccs2)cc2cc(F)ccc21)NC1CCCCCC1`, in that order: -3% and 0.36.
`Cn1nncc1C1(O)CN(c2nc3ccccc3n3cncc23)C1`: the “% Inhibition” value is -10% and the Z score was 1.56.
Take `C[C@H]1CN(CCC(=O)NCc2cc(-c3ccccc3)[nH]n2)Cc2cc(Cl)ccc2O1`: the “% Inhibition” value was -8% and the Z score amounted to 0.99.
For `Cc1nccc(C(=O)NCC2(c3ccccc3)CC2)n1`, the “% Inhibition” value was -9% and the Z score is reported as 0.92.
For `O=C(Nc1ccccc1F)OCC(F)(F)F`, in that order: -3% and 0.57.
The corresponding values for `Cc1cccc(CN2CC[C@@H]3CN(C(=O)c4onc5c4CCCC5)C[C@@H]32)n1` are 3% and -0.56.
The corresponding values for `CN(CCC1(O)CCCC1)CCS(C)(=O)=O` are -6% and 0.94.
With `CCN=C(NC)NC[C@@H](c1ccccc1OC)N1CCCC1`, the “% Inhibition” value is recorded as -8% and the Z score was 0.77.
For `CN(C(=O)c1cccc(-c2nccs2)c1)[C@H]1COC[C@@H]1O`, the “% Inhibition” value is -14% and the Z score stood at 1.85.
The corresponding values for `O=C(NCC(=O)N1CCC(n2c(=O)[nH]c3ncccc3c2=O)CC1)OCc1ccccc1` are -8% and 1.64.
The corresponding values for `CC1CC(C)CN(S(=O)(=O)c2ccc(C(=O)N3CCCN(C)c4nc5ccccc5nc43)cc2)C1` (stereo unspecified) are -9% and 1.16.
The corresponding values for `CC(C)c1ccc(N2C[C@@H](CN3CCOCC3)C[C@H](CO)C2)nn1` are -7% and 0.77.
Take `COc1cc(CN2CCc3nc(N4CCN(C)CC4)nc(N4CCOCC4)c3C2)cc(OC)c1`: the “% Inhibition” value is reported as -16% and the Z score is recorded as 2.17.
For `CCn1nccc1NC(=O)c1cc(F)c[nH]1`, in that order: -7% and 0.82.
For `CS(=O)(=O)c1ccc(Cl)c(S(=O)(=O)Nc2cnoc2-c2ccccc2)c1`, the “% Inhibition” value is -4% and the Z score is 0.63.
For `Cc1cc(C#N)ccc1C(=O)NCCOC1CCCCC1`, in that order: -3% and 0.51.
For `Cc1ccc(Nc2nc(N)nc(-c3ccc(C4(O)CCNCC4)cc3)n2)cc1`, in that order: -3% and 0.52.
Take `CCCc1nnsc1C(=O)N1CCc2nc(NC(=O)OCC)sc2C1`: the “% Inhibition” value is reported as -5% and the Z score is reported as 1.08.
For the compound `O=C(c1ccc2ncsc2c1)N1CCC(F)(F)C1`, the “% Inhibition” value is listed as -14% and the Z score is on record as 1.73.
As to `c1n[nH]cc1CCCN1CCc2[nH]ncc2C1`, the “% Inhibition” value is given as 4% and the Z score is on record as -0.73.
The corresponding values for `O=C1C[C@H](COCc2ccccc2)c2c(-c3cccs3)n[nH]c2N1` are -3% and 0.4.
The corresponding values for `O=C(CCC(=O)N1CCN(c2cccc(Cl)c2)CC1)Nc1ccc(OCc2ccccc2)cc1` are 5% and -0.73.
The corresponding values for `O=S(=O)(NCc1cccc2c1OCO2)c1ccc(CC(F)(F)F)cc1` are 4% and -0.63.
Consider `Cc1ccc(NS(=O)(=O)c2cc(CN3C(=O)C4CCCCC4C3=O)ccc2C)cc1C` (stereo unspecified), for which the “% Inhibition” value is reported as -10% and the Z score is 1.35.
Regarding `O=C1CN(CC(=O)Nc2nc(-c3ccccc3)cs2)CCN1`, the “% Inhibition” value is reported as -17% and the Z score worked out at 1.82.
